The list shows a part of the results. Single values are uncertain, as repeats are few or missing.
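Further: cell number obtained by counting DAPI-stained nuclei in high-throughput microscope images with image analysis software, screen run in 1,536-well plates.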

This experiment has as its system WM451Lu. The experiment in a line: cell count relative to DMSO control; melanoma cells; higher = more viable cells. To be noted: library dose: low library concentration; 72 h.
For the compound `CC(C)(C)c1cnc(CSc2cnc(NC(=O)C3CCNCC3)s2)o1` + COc1ccc2c(c1)CCC1C2CCC2(C)C(NCCCCCCN3C(=O)C=CC3=O)CCC12 [U73122] (first compound 0.01 µM, partner dose 0.4 µM), the cell count was 118%. The same measure for `CC(C)(C)c1cnc(CSc2cnc(NC(=O)C3CCNCC3)s2)o1` + Oc1cc(-c2nc(-c3ccccc3)[nH]c2-c2ccncc2)ccc1Cl [L779450] (first compound 0.01 µM, partner dose 0.2 µM): 117%. For `CC(C)(C)c1cnc(CSc2cnc(NC(=O)C3CCNCC3)s2)o1` + Cn1cc(/C=C2\C(=O)Nc3cccnc32)c2ccccc21 [GW441756] (first compound 0.01 µM, partner dose 0.4 µM) the value was 99.9%; for `CN(NC(=O)CC(=O)NN(C)C(=S)c1ccccc1)C(=S)c1ccccc1` + COc1cc2ncnc(Nc3ccc(Oc4ccccc4)cc3)c2cc1OC [SrcI1] (first compound 0.006 µM, partner dose 2 µM), 106%. As for `CCc1ccc(CCOc2ccc(CC3SC(=O)NC3=O)cc2)nc1` (stereo not given) [pioglitazone] + c1cc(-c2cnn3cc(-c4ccc(OCCN5CCCCC5)cc4)cnc23)ccn1 [Dorsomorphin] (first compound 2 µM, partner dose 0.4 µM), the cell count is 105%. For `Cc1ccc(NC(=O)c2cccc(N(C)C)c2)cc1NC(=O)c1ccc(O)cc1` + Cn1cc(/C=C2\C(=O)Nc3cccnc32)c2ccccc21 [GW441756] (first compound 2 µM, partner dose 0.4 µM) the value was 114%; for `CN(NC(=O)CC(=O)NN(C)C(=S)c1ccccc1)C(=S)c1ccccc1` + O=c1cc(-c2cccc3c2Sc2ccccc2S3)oc(N2CCOCC2)c1 [KU55933] (first compound 0.006 µM, partner dose 1 µM), 114%. The compound `CC(C)(C)c1cnc(CSc2cnc(NC(=O)C3CCNCC3)s2)o1` + O=C1NC(=O)/C(=C/c2ccc(-c3ccc(F)cc3O)o2)S1 [AS252424] (first compound 0.01 µM, partner dose 1 µM) came in with a cell count of 117%.

On to `CN(NC(=O)CC(=O)NN(C)C(=S)c1ccccc1)C(=S)c1ccccc1` + O=C(Nc1ccccc1)c1cc([N+](=O)[O-])ccc1Cl [GW9662] (first compound 0.006 µM, partner dose 2 µM), for which the cell count was found to be 139%.

`COc1cc2c(Oc3ccc4[nH]c(C)cc4c3F)ncnc2cc1OCCCN1CCCC1` [cediranib] + O=C(O)C(=O)Nc1sc2c(c1C(=O)O)CCNC2 [TCS401] (first compound 0.4 µM, partner dose 1.66667 µM) registered a cell count of 92.2%.

`CC(C)(C)c1cnc(CSc2cnc(NC(=O)C3CCNCC3)s2)o1` + O=c1cc(-c2cccc3c2Sc2ccccc2S3)oc(N2CCOCC2)c1 [KU55933] (first compound 0.01 µM, partner dose 1 µM) gave a cell count of 103%.

Take `COc1cc2c(Oc3ccc4[nH]c(C)cc4c3F)ncnc2cc1OCCCN1CCCC1` [cediranib] + CCc1ccc(CCOc2ccc(CC3SC(=O)NC3=O)cc2)nc1 [pioglitazone] (first compound 0.4 µM, partner dose 2 µM): the cell count is 109%. The compound `CN(NC(=O)CC(=O)NN(C)C(=S)c1ccccc1)C(=S)c1ccccc1` + O=C(O)C(=O)Nc1sc2c(c1C(=O)O)CCNC2 [TCS401] (first compound 0.006 µM, partner dose 1.66667 µM) showed a cell count of 111%. The compound `CN(NC(=O)CC(=O)NN(C)C(=S)c1ccccc1)C(=S)c1ccccc1` + Cn1cc(/C=C2\C(=O)Nc3cccnc32)c2ccccc21 [GW441756] (first compound 0.006 µM, partner dose 0.4 µM) showed a cell count of 119%.

In turn, `Cc1ccc(NC(=O)c2cccc(N(C)C)c2)cc1NC(=O)c1ccc(O)cc1` + CCc1ccc(CCOc2ccc(CC3SC(=O)NC3=O)cc2)nc1 [pioglitazone] (first compound 2 µM, partner dose 2 µM) returned a cell count of 92.2%. For `COc1cc2c(Oc3ccc4[nH]c(C)cc4c3F)ncnc2cc1OCCCN1CCCC1` [cediranib] + N#Cc1c(O)c2c(-c3ccc(-c4ccccc4O)cc3)csc2[nH]c1=O [A769662] (first compound 0.4 µM, partner dose 2 µM) the value was 97.2%; for `CCc1ccc(CCOc2ccc(CC3SC(=O)NC3=O)cc2)nc1` (stereo not given) [pioglitazone] + Cc1cc([N+](=O)[O-])ccc1NS(=O)(=O)c1cc(Cl)ccc1Cl [FH535] (first compound 2 µM, partner dose 1 µM), 91.8%; for `CCc1ccc(CCOc2ccc(CC3SC(=O)NC3=O)cc2)nc1` (stereo not given) [pioglitazone] + COC(=O)c1sccc1S(=O)(=O)Nc1ccc(Nc2ccccc2)cc1OC [GSK0660] (first compound 2 µM, partner dose 1 µM), 90.5%.

`COc1cc2c(Oc3ccc4[nH]c(C)cc4c3F)ncnc2cc1OCCCN1CCCC1` [cediranib] + COc1ccc(COc2ccc(Cc3cnc(N)nc3N)cc2OC)cc1 [GW2580] (first compound 0.4 µM, partner dose 1 µM) had a cell count of 117%. `Cc1ccc(NC(=O)c2cccc(N(C)C)c2)cc1NC(=O)c1ccc(O)cc1` + COc1ccc2c(c1)CCC1C2CCC2(C)C(NCCCCCCN3C(=O)C=CC3=O)CCC12 [U73122] (first compound 2 µM, partner dose 0.4 µM) came in with a cell count of 111%. For `CN(NC(=O)CC(=O)NN(C)C(=S)c1ccccc1)C(=S)c1ccccc1` + CCc1ccc(CCOc2ccc(CC3SC(=O)NC3=O)cc2)nc1 [pioglitazone] (first compound 0.006 µM, partner dose 2 µM) the value was 88.9%. For `CN(NC(=O)CC(=O)NN(C)C(=S)c1ccccc1)C(=S)c1ccccc1` + Oc1nc(-c2ccc(C(F)(F)F)cc2)nc2c1CSCC2 [XAV939] (first compound 0.006 µM, partner dose 2 µM) the value was 83.7%. With `CCc1ccc(CCOc2ccc(CC3SC(=O)NC3=O)cc2)nc1` (stereo not given) [pioglitazone] + CCN(CC)CCCCNc1ncc2cc(-c3cc(OC)cc(OC)c3)c(NC(=O)NC(C)(C)C)nc2n1 [PD173074] (first compound 2 µM, partner dose 0.1 µM), the cell count is 100%.

The compound `CN(NC(=O)CC(=O)NN(C)C(=S)c1ccccc1)C(=S)c1ccccc1` + Cc1cc([N+](=O)[O-])ccc1NS(=O)(=O)c1cc(Cl)ccc1Cl [FH535] (first compound 0.006 µM, partner dose 1 µM) yielded a cell count of 121%. For `CC(C)(C)c1cnc(CSc2cnc(NC(=O)C3CCNCC3)s2)o1` + CCCCCCCCCCCC1=C(O)C(=O)C=C(O)C1=O [Embelin] (first compound 0.01 µM, partner dose 1.2 µM) the value was 132%; for `Cc1ccc(NC(=O)c2cccc(N(C)C)c2)cc1NC(=O)c1ccc(O)cc1` + O=C1NC(=O)/C(=C/c2ccc(-c3ccc(F)cc3O)o2)S1 [AS252424] (first compound 2 µM, partner dose 1 µM), 96.4%; for `CC(C)(C)c1cnc(CSc2cnc(NC(=O)C3CCNCC3)s2)o1` + CCN(CC)CCCCNc1ncc2cc(-c3cc(OC)cc(OC)c3)c(NC(=O)NC(C)(C)C)nc2n1 [PD173074] (first compound 0.01 µM, partner dose 0.1 µM), 93.1%. The same measure for `Cc1ccc(NC(=O)c2cccc(N(C)C)c2)cc1NC(=O)c1ccc(O)cc1` + COc1ccc(-c2ccc3c(N4CCOCC4)nc(N4C[C@@H](C)O[C@@H](C)C4)nc3n2)cc1CO [KU0063794] (first compound 2 µM, partner dose 0.02 µM): 66.9%; for `Cc1ccc(NC(=O)c2cccc(N(C)C)c2)cc1NC(=O)c1ccc(O)cc1` + O=C(Nc1ccccc1)c1cc([N+](=O)[O-])ccc1Cl [GW9662] (first compound 2 µM, partner dose 2 µM): 74.2%; for `CCc1ccc(CCOc2ccc(CC3SC(=O)NC3=O)cc2)nc1` (stereo not given) [pioglitazone] + COc1ccc(-c2ccc3c(N4CCOCC4)nc(N4C[C@@H](C)O[C@@H](C)C4)nc3n2)cc1CO [KU0063794] (first compound 2 µM, partner dose 0.02 µM): 105%.

Turning to `COc1cc2c(Oc3ccc4[nH]c(C)cc4c3F)ncnc2cc1OCCCN1CCCC1` [cediranib] + COC(=O)c1sccc1S(=O)(=O)Nc1ccc(Nc2ccccc2)cc1OC [GSK0660] (first compound 0.4 µM, partner dose 1 µM), the cell count was found to be 107%.

Take `CN(NC(=O)CC(=O)NN(C)C(=S)c1ccccc1)C(=S)c1ccccc1` + COc1ccc(-c2ccc3c(N4CCOCC4)nc(N4C[C@@H](C)O[C@@H](C)C4)nc3n2)cc1CO [KU0063794] (first compound 0.006 µM, partner dose 0.02 µM): the cell count turned out to be 99%. For `CCc1ccc(CCOc2ccc(CC3SC(=O)NC3=O)cc2)nc1` (stereo not given) [pioglitazone] + COc1ccc(COc2ccc(Cc3cnc(N)nc3N)cc2OC)cc1 [GW2580] (first compound 2 µM, partner dose 1 µM) the value was 101%; for `Cc1ccc(NC(=O)c2cccc(N(C)C)c2)cc1NC(=O)c1ccc(O)cc1` + CCCCCCCCCCCC1=C(O)C(=O)C=C(O)C1=O [Embelin] (first compound 2 µM, partner dose 1.2 µM), 104%. Consider `Cc1ccc(NC(=O)c2cccc(N(C)C)c2)cc1NC(=O)c1ccc(O)cc1` + CCN(CC)CCCCNc1ncc2cc(-c3cc(OC)cc(OC)c3)c(NC(=O)NC(C)(C)C)nc2n1 [PD173074] (first compound 2 µM, partner dose 0.1 µM), for which the cell count amounted to 96.2%.

The values are drawn from the supplement of paper PMC4604168 (melanoma cell lines).
